Results from the supplement of paper PMC3334620.
The full ranking holds about 33,000 sequences; the median of “E-score (-0.5 to 0.5)” is about -0.032, and the highest 2% start at about 0.36. The list shows a part of the results.

What follows are sequences tested against T1, Sko1 (UniProt Q02100) (assay: PBM E-score (8-mer binding enrichment) (E-score (-0.5 to 0.5)); higher = stronger / more preferred TF binding; most listed sequences are background and not binding sites). Details: protein concentration: 200 nM; construct: GST-full length.
T1 sequence: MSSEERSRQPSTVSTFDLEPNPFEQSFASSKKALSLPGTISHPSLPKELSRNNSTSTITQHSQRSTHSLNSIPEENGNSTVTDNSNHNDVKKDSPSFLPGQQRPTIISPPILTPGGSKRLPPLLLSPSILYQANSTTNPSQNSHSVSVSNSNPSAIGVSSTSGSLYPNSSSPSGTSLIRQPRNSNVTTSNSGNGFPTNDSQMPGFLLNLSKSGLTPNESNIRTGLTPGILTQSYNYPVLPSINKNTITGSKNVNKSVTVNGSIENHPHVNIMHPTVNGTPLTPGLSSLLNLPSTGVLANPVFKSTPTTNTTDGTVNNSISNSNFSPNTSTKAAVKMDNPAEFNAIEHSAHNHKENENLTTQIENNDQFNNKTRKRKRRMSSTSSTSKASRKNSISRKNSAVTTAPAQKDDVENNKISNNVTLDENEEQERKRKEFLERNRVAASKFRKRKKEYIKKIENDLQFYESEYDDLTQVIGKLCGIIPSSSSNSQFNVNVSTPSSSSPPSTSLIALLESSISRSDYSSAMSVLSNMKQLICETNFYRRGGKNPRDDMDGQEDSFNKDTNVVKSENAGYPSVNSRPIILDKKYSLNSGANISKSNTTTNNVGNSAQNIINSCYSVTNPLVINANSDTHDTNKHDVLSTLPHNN
Procedure: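 Universal 'all 10-mer' protein binding microarrays (Agilent AMADID 015681) probed with GST-tagged S. cerevisiae TFs (full-length or DBD) made by in vitro transcription/translation (PURExpress), about 100-200 nM. Bound TF was detected with fluorescent anti-GST. Each ungapped 8-mer (which stands for itself and its reverse complement) is scored by the PBM enrichment score (E-score), a modified Wilcoxon-Mann-Whitney statistic from -0.5 to +0.5, computed with the Universal PBM Analysis Suite. Scale: above 0.35 generally sequence-specific binding.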

| Sequence | PBM E-score |
| --- | --- |
| CTGCGAAC | 0.047 |
| AGATATAC | 0.133 |
| AATGGAGG | -0.235 |
| ATAGAGCC | -0.0103 |
| GCGACGGA | -0.237 |
| ACAGGAGG | -0.289 |
| GGCAGGTA | -0.257 |
| CCAAGGTA | -0.203 |
| AAAGACTC | -0.141 |
| ATATTAGA | 0.318 |
| GTGTTAAA | 0.0912 |
| CCATGCCG | -0.137 |
| AAAGGAGA | -0.0924 |
| ACCGGCTA | -0.125 |
| GCTTGACC | -0.242 |
| GGAAGCGA | 0.0143 |
| AAGGATAA | 0.0386 |
| AGAAACGC | -0.0228 |
| ATGTCCGG | -0.0905 |
| CGTCGTCA | 0.362 |
| TCGAACCA | -0.0881 |
| GGCGGTTA | -0.229 |
| GCTCGTAC | -0.0469 |
| ACCGATTC | -0.197 |
| GCAAGAGA | 0.0227 |

| Sequence | PBM E-score |
| --- | --- |
| AGTCAGGC | -0.0572 |
| CATCTGAA | 0.0772 |
| GAATCATC | 0.0732 |
| CGAAACTC | -0.0389 |
| ATAGACTG | -0.0909 |
| AGCAGGAA | -0.0486 |
| CCGGAACG | -0.231 |
| AAGGATCT | -0.148 |
| CTGTGATA | 0.00809 |
| ATCCGAAT | 0.206 |
| ACCTCTAA | -0.0329 |
| AGGCTGGG | -0.245 |
| AATACATG | 0.134 |
| CGATATTC | -0.0106 |
| ACGACCAG | 0.0147 |
| TGTATTAA | 0.182 |
| CTGTGGTC | -0.159 |
| AGCATTAA | 0.107 |
| ACGCGCGC | 0.22 |
| AAACCCCA | -0.181 |
| CTATCAGA | -0.189 |
| AGCTAAGA | 0.0674 |
| GAGTCAAA | -0.0207 |
| GCCGACCC | -0.329 |
| ACTGTTGC | 0.053 |

| Sequence | PBM E-score |
| --- | --- |
| CATTCTCG | -0.121 |
| CCATGGGC | -0.35 |
| ATTGATAC | 0.232 |
| CACATAAA | 0.294 |
| CAACACTC | -0.0786 |
| GGTGTGAC | -0.0191 |
| GCCGTGTA | -0.221 |
| CGCCCATA | -0.0644 |
| TAGTCAGA | -0.00137 |
| TTGCCCAA | -0.106 |
| GTCGAGAC | 0.0652 |
| CGTCGTAG | 0.0813 |
| CGAGCGAA | -0.0462 |
| CTGAACTA | -0.132 |
| GGCGAGAA | -0.0627 |
| CCTTGACC | -0.392 |
| AGTCCGTG | -0.249 |
| AACTCATG | 0.195 |
| GAGGGTCC | -0.279 |
| ACGGCACG | 0.104 |
| TACTCACA | 0.00754 |
| CGTATGTA | 0.367 |
| AATTGCAG | 0.0283 |
| ACCCAGCC | -0.342 |
| GCGCCGAA | -0.263 |

| Sequence | PBM E-score |
| --- | --- |
| CATGATCC | -0.189 |
| GGCGGTCA | -0.333 |
| TAGTTAAA | 0.253 |
| CCTACCTA | -0.0375 |
| AAAGCCGA | -0.353 |
| CCGTGGGA | -0.28 |
| CAGAGCCC | -0.255 |
| AGATGTTA | -0.00044 |
| TGAATTCA | 0.24 |
| AAAAAGTT | -0.0105 |
| GGACATCA | 0.205 |
| CAGATACG | 0.231 |
| AAACGCCT | -0.154 |
| AGATATGA | 0.232 |
| GATCGTGA | -0.064 |
| CCACGTCA | 0.477 |
| CGCTCAGC | -0.212 |
| CGAGTGAA | 0.138 |
| CGTCTGCA | 0.106 |
| GAAATGTA | 0.0543 |
| ATCTAGAC | 0.0525 |
| CTCGAAGA | -0.0558 |
| GACTTCCA | -0.177 |
| CATCTCAA | 0.192 |
| GTCTGAGA | 0.00502 |

| Sequence | PBM E-score |
| --- | --- |
| AAATCTCA | 0.0937 |
| TGACCGCA | -0.00327 |
| CAGAATAC | 0.125 |
| CCCCGCAC | -0.133 |
| AATGTAAC | 0.0785 |
| AGCAAATC | 0.0775 |
| GGAGAGGA | -0.321 |
| GAGGGTTA | -0.0259 |
| TAAATGTA | 0.191 |
| AGGGTCAC | -0.235 |
| CCAATCCG | -0.0702 |
| CAAGCTTC | -0.00273 |
| ACGGAACA | -0.0669 |
| ACCGGCTG | -0.337 |
| CTTACTGC | -0.111 |
| GTTATCAA | 0.19 |
| ACCGCGAA | -0.0288 |
| GCGACGTA | 0.413 |
| CATACCCC | -0.248 |
| CCAATAAC | 0.159 |
| GGTCATAC | 0.021 |
| GCCCCTCA | -0.314 |
| AACGTGAA | 0.14 |
| ATCAGCGA | -0.0282 |
| CTTATGGA | -0.255 |

| Sequence | PBM E-score |
| --- | --- |
| ATCGATCG | 0.104 |
| ATGATGGA | 0.115 |
| AATAGCTC | -0.0596 |
| CGACACGC | 0.109 |
| CAGGCTGG | -0.236 |
| CTAATCCC | -0.047 |
| AAGCACAC | -0.0626 |
| CTATCGGA | -0.139 |
| ATCCCGGC | -0.229 |
| AAAGCGCG | 0.0853 |
| AAGTCTGC | -0.245 |
| CTAGACCC | -0.075 |
| TGTTTCAA | 0.2 |
| ATTTCCGA | 0.0263 |
| GCAATATA | 0.102 |
| AACAAAGA | 0.0544 |
| AAACAGCA | 0.0279 |
| CTGTGCGA | -0.149 |
| CTGGAGTA | 0.101 |
| CGTGAGTC | 0.0234 |
| CAACACGC | 0.0514 |
| GCTACGGA | -0.0597 |
| CGCCCATC | -0.193 |
| AGACTTCG | 0.0209 |
| ACCCCCAA | -0.174 |

| Sequence | PBM E-score |
| --- | --- |
| ACGCCTAA | 0.0525 |
| AAACCTCC | -0.198 |
| AGTTCTGC | -0.00688 |
| CGCGTACG | 0.401 |
| ACTAATAA | 0.297 |
| ACTCCGAT | -0.27 |
| ATGGGCTC | -0.183 |
| CGATCTAG | -0.115 |
| AGACCTTG | -0.208 |
| CTGCGCCA | -0.0267 |
| AACTTCGC | 0.0815 |
| AGGTTGAG | -0.143 |
| TGTCCGAA | -0.0382 |
| ATAATGAC | 0.378 |
| CTGTTTTC | 0.0477 |
| AACCTCTA | -0.112 |
| ACAGGAGC | -0.0772 |
| GTGCGGTA | 0.00857 |
| CCAGCAGG | -0.217 |
| AGCTCAAT | 0.016 |
| AGTAGAGC | -0.192 |
| CTTACTCA | -0.0819 |
